Laboratory results as given in article PMC6919601, “Identification of Plasmodium dipeptidyl aminopeptidase allosteric inhibitors by high throughput screening” (PLoS ONE, 2019).
The campaign covered roughly 110,000 compounds. About 230 (0.21%) showed an effect of 50% or more. This is one part of the list.

What follows are molecules tested against DPAP1 (Plasmodium falciparum, UniProt Q8IIJ9) (assay: primary screen, percent inhibition; read by cleavage of a fluorogenic dipeptide substrate; higher = more effect of the substance).
DPAP1, sequence (Q8IIJ9 whole entry, looked up): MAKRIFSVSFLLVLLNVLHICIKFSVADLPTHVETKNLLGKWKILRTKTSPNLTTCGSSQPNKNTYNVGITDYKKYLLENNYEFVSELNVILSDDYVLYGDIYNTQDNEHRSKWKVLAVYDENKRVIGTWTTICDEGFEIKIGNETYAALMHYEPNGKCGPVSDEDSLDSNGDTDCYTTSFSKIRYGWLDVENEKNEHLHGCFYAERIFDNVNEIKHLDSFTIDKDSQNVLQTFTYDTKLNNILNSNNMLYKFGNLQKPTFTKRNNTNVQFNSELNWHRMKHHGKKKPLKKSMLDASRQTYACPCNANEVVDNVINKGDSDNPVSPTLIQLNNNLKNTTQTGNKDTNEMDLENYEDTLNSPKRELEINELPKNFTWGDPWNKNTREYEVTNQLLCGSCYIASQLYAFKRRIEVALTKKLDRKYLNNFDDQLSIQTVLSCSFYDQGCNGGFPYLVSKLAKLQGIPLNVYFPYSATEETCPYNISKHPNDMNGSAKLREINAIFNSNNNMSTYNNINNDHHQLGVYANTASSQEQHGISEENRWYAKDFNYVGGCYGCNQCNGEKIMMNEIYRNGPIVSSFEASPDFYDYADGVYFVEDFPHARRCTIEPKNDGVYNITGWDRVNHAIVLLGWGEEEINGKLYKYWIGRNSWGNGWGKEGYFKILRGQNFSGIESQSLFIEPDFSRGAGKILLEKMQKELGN
Set-up: species or system P. falciparum D10 trophozoite lysates; single well
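Also: 30 min substrate incubation versus DMSO and 10 µM JCP410 controls.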

Row | SMILES | % Inhibition @ 10 uM [%]
1 | COc1cc(CN2CCN(c3ccccc3)CC2)cc(Br)c1O | -3.65
2 | CC(C)(C)N1C(=O)C2C3C=CC(C2C1=O)C1C(=O)N(C(C)(C)C)C(=O)C31 (stereo not shown) | -2.18
3 | COc1ccc(OC)c(C2C3=C(O)CCCC3=NC(C)=C2C(=O)Nc2ccccc2F)c1 (stereo not shown) | 0.121
4 | C#CCN1C(=O)S/C(=C\c2ccc(OC(C)C(=O)O)c(OC)c2)C1=O (stereo not shown) | 1.63
5 | CCC(C)NC(=O)c1c(O)nc2c(c1O)CCCC2 (stereo not shown) | -0.458
6 | Cc1ccsc1C1C=C(c2cccc(Br)c2)Nc2ncnn21 (stereo not shown) | -3.37
7 | O=C(Cn1ccc2cc(S(=O)(=O)N3CCCC3)ccc21)NCCc1ccc(Cl)cc1 | -2.56
8 | Cc1c(CN(C)CCc2ccccc2)c(=O)n(-c2ccccc2)n1C | -0.292
9 | O=S(=O)(c1ccccc1)N1CCN(Cc2cccc(Oc3ccccc3)c2)CC1 | -3.4
10 | CN1CCN(c2nc3c(O)ncnc3[nH]2)CC1 | -1.54
11 | CCc1ccccc1-n1c(C)cc(/C=C2/SC(=O)N(C)C2=O)c1C | -6.69
12 | CC(=O)c1ccc2c(c1)c1ccccc1n2C | 2.62
13 | COc1ccc(Cl)cc1N(CC(=O)Nc1ccc(C(C)C)cc1)S(C)(=O)=O | 0.324
14 | N#CC1=C(N)C(C#N)(C#N)C(c2cccnc2)C2CSCC=C12 (stereo not shown) | -1.93
15 | CCOC(=O)N1CCN(C(=O)c2ccc3c(SCC(=O)O)c4c(nc3c2)CCC4)CC1 | 1.15
16 | CC(C)NC(=O)c1cc2c(ccc3ccccc32)o1 | -0.795
17 | Fc1cccc(Cl)c1-c1nnc2ccc(N3CCN(Cc4ccc5c(c4)OCO5)CC3)nn12 | 1.76
18 | CC(C)(C)OC(=O)N[C@@H](Cc1ccc(Br)s1)C(=O)NCC#N | -1.41
19 | Cc1[nH]c2ccccc2c1/C=C1/SC(=O)N(CC(=O)Nc2ccc3c(c2)OCO3)C1=O | 8.13
20 | C=CCN1/C(=N\C(=O)C(CC)CC)SC2CS(=O)(=O)CC21 (stereo not shown) | -2.92
21 | Cc1onc(-c2ccccc2)c1C(=O)N1CCc2ccccc21 | -0.267
22 | O=C(CNC(=O)c1ccc(Cl)cc1Cl)c1ccccc1 | 5.73

Row | SMILES | % Inhibition @ 10 uM [%]
23 | O=C(c1ccccc1)c1oc2ccccc2c1NC(=O)c1cc2ccccc2oc1=O | -2.91
24 | O=C(Cn1nnc(-c2ccccc2)n1)NCc1ccco1 | -0.169
25 | CCCS(=O)(=O)N1CCC(C(=O)NCCCN2CCCC2=O)CC1 | -9.35
26 | CCOc1ccc(-n2c(C)cc(/C=C3\C(=N)N4N=C(N5CCCC5)SC4=NC3=O)c2C)cc1 | 3.32
27 | CN(CCC#N)C(=O)c1nn(C)c2c1COc1ccccc1-2 | 1.68
28 | COC(=O)c1c(N)n(CCc2ccc(OC)c(OC)c2)c2nc3ccccc3nc12 | -5.28
29 | COc1ccc(CC(=O)Nc2ccccc2C(F)(F)F)cc1 | -2.36
30 | Cc1ccc(CNC(=O)c2ccc3[nH]c(C)c(C)c3c2)cc1 | -4.33
31 | Fc1ccccc1N1CCN(Cc2cccs2)CC1 | -5.57
32 | O=C(Nc1sc2c(c1C(=O)NCC1CCCO1)CCCC2)c1ccccc1 (stereo not shown) | -2.67
33 | CCOC(=O)C1CCCN(Cc2ccoc2)C1 (stereo not shown) | 1.55
34 | Clc1ccc(CNC2CN3CCC2CC3)c(Cl)c1 (stereo not shown) | 3.19
35 | CCOc1nc(C)ccc1-c1noc(-c2cccs2)n1 | -5
36 | COc1cc(C2CC(=O)c3cnc4c(-c5ccccc5)c(C)nn4c3C2)cc(OC)c1OC (stereo not shown) | -1.11
37 | CC(=O)Nc1nonc1NC(=O)c1ccc(F)cc1 | 1.03
38 | CC1CCCN(C(=O)c2ccc(COc3ccc(Cl)cc3Cl)o2)C1 (stereo not shown) | -3.13
39 | O=c1c2ccccc2n2c(-c3cc(Cl)ccc3O)nnc2n1CCc1ccccc1 | -1.72
40 | COc1ccc(C2=NN3C(C2)c2cccc(OC)c2OC3(C)C)cc1 (stereo not shown) | 38.5
41 | COC(=O)c1c(NC(=O)/C=C/c2ccccc2)sc2c1CCC2 | 10.5
42 | CCOC(=O)c1c(C(=O)OCC)c2n(c1-c1ccccc1)Cc1ccccc1-2 | 2.39
43 | CCOC(=O)c1c(NC(=O)c2ccccc2)sc([N+](=O)[O-])c1-c1ccccc1 | -6.99
44 | NC(=O)CCN(C1CCCCC1)S(=O)(=O)c1cccc2nsnc12 | -5.36

Row | SMILES | % Inhibition @ 10 uM [%]
45 | CCc1ccc(-c2cn3c(n2)sc2cc(C(=O)O)ccc23)cc1 | -7.02
46 | C=C(C)CN1CCN(C(=O)CCCc2c[nH]c3ccccc23)CC1 | 0.238
47 | COc1ccc(/C=C/C(=O)Nc2ccncc2)cc1OC | 0.587
48 | CC(Cc1ccc(F)cc1)NCC(C)(C)CN(C)C (stereo not shown) | -0.292
49 | O=C(Nc1cnc(O)nc1O)c1cccs1 | -1.2
50 | CC(=O)c1oc2ccccc2c1NC(=O)Cc1ccccc1 | 2.36
51 | COc1cccc(-c2ccc(C#N)c(SCC(=O)Nc3ncc(C)s3)n2)c1 | -6.18
52 | O=C(Nc1ccc2c(c1)OCO2)c1ccc(Cl)c(Cl)c1 | -6.39
53 | COc1ccc(/C=c2\sc3nc(-c4cc(OC)c(OC)c(OC)c4)nn3c2=O)c(OC)c1 | -2.98
54 | CC(NC(=O)c1ccc(-n2cnc3cccnc32)cc1)c1ccccc1 (stereo not shown) | -5.92
55 | CC1=Nc2ncnn2C(c2ccc(C)cc2)/C1=C(\O)OC1CCCCC1 (stereo not shown) | 2.17
56 | CCCn1c(SCc2ccc(F)cc2)nc2c1c(=O)n(C)c(=O)n2C | 7.18
57 | CCO/C(O)=C(/C(=N)NCc1ccco1)C(=O)c1ccccc1 | 2.95
58 | Cc1ccccc1NC(=O)c1cccc2c1C(=O)c1ccccc1-2 | 4.74
59 | CCOC(=O)N1CCC(/N=c2\c(O)c(O)\c2=N/Cc2cccc(OC)c2)CC1 | 3.54
60 | CNC(=O)C1CN(S(=O)(=O)c2ccccc2)CCN1S(=O)(=O)c1ccccc1 (stereo not shown) | -4.72
61 | CCOC(=O)C1=C(CN2CC(C)CC(C)C2)NC(=O)NC1c1cccs1 (stereo not shown) | 3.54
62 | Cc1ccccc1C(=O)Nc1sc2c(c1C(=O)NCc1cccnc1)CCCCC2 | 2.03
63 | O=C(NC1CCCCCC1)C1CCCN(c2ncnc3c2sc2cccc(F)c23)C1 (stereo not shown) | -2.37
64 | CC(C)CCNc1nc2ccccc2c2nc(-c3ccccc3)nn12 | -4.21
